According to publication PMC9911399, “Two distinct binding modes provide the RNA-binding protein RbFox with extraordinary sequence specificity”:
Positions count from the first letter of the chain named. The list shows a part of the results.

B1: GAUGGAA (DNA:RNA)
RNA: GGGAGACCGGAAUUCAGAUUGUCCGAUGGAAUUAAAUCCCGUCGUAGCCACCA
DNA 1: CAATCTGAATTCCGGTCTCCC
DNA 2: TGGTGGCTACGACGGGATT
B2: UGGUGUC (DNA:RNA)
RNA: B1 RNA with G25U, A26G, U27G, G28U, A30U, A31C
DNA 1: CAATCTGAATTCCGGTCTCCC
DNA 2: TGGTGGCTACGACGGGATT
B3: ACACUGU (DNA:RNA)
RNA: GGGAGACCGGAAUUCAGAUUGUCCACACUGUUUAAAUCCCGUCGUAGCCACCA
DNA 1: CAATCTGAATTCCGGTCTCCC
DNA 2: TGGTGGCTACGACGGGATT
B4: UGUGUGU (DNA:RNA)
RNA: B3 RNA with A25U, C26G, A27U, C28G
DNA 1: CAATCTGAATTCCGGTCTCCC
DNA 2: TGGTGGCTACGACGGGATT
B5: UCCGUCA (DNA:RNA)
RNA: B3 RNA with A25U, A27C, C28G, G30C, U31A
DNA 1: CAATCTGAATTCCGGTCTCCC
DNA 2: TGGTGGCTACGACGGGATT
B6: GCGCUGU (DNA:RNA)
RNA: B3 RNA with A25G, A27G
DNA 1: CAATCTGAATTCCGGTCTCCC
DNA 2: TGGTGGCTACGACGGGATT
B7: CUGGGCU (DNA:RNA)
RNA: B1 RNA with G25C, A26U, U27G, A30C, A31U
DNA 1: CAATCTGAATTCCGGTCTCCC
DNA 2: TGGTGGCTACGACGGGATT
B8: GAACAGG (DNA:RNA)
RNA: B3 RNA with A25G, C26A, U29A, U31G
DNA 1: CAATCTGAATTCCGGTCTCCC
DNA 2: TGGTGGCTACGACGGGATT
B9: UAGCUCG (DNA:RNA)
RNA: B3 RNA with A25U, C26A, A27G, G30C, U31G
DNA 1: CAATCTGAATTCCGGTCTCCC
DNA 2: TGGTGGCTACGACGGGATT
B10: CCAUGUG (DNA:RNA)
RNA: B3 RNA with A25C, C28U, U29G, G30U, U31G
DNA 1: CAATCTGAATTCCGGTCTCCC
DNA 2: TGGTGGCTACGACGGGATT
B11: CCAUAGA (DNA:RNA)
RNA: B3 RNA with A25C, C28U, U29A, U31A
DNA 1: CAATCTGAATTCCGGTCTCCC
DNA 2: TGGTGGCTACGACGGGATT
B12: ACGCGCC (DNA:RNA)
RNA: B3 RNA with A27G, U29G, G30C, U31C
DNA 1: CAATCTGAATTCCGGTCTCCC
DNA 2: TGGTGGCTACGACGGGATT
B13: UUUUCGA (DNA:RNA)
RNA: B1 RNA with G25U, A26U, G28U, G29C, A30G
DNA 1: CAATCTGAATTCCGGTCTCCC
DNA 2: TGGTGGCTACGACGGGATT
B14: GCCGUGG (DNA:RNA)
RNA: B3 RNA with A25G, A27C, C28G, U31G
DNA 1: CAATCTGAATTCCGGTCTCCC
DNA 2: TGGTGGCTACGACGGGATT
B15: CCCGCGU (DNA:RNA)
RNA: B3 RNA with A25C, A27C, C28G, U29C
DNA 1: CAATCTGAATTCCGGTCTCCC
DNA 2: TGGTGGCTACGACGGGATT
B16: UACCUGC (DNA:RNA)
RNA: B3 RNA with A25U, C26A, A27C, U31C
DNA 1: CAATCTGAATTCCGGTCTCCC
DNA 2: TGGTGGCTACGACGGGATT
B17: GGUCCAG (DNA:RNA)
RNA: B1 RNA with A26G, G28C, G29C, A31G
DNA 1: CAATCTGAATTCCGGTCTCCC
DNA 2: TGGTGGCTACGACGGGATT
B18: GACACGA (DNA:RNA)
RNA: B1 RNA with U27C, G28A, G29C, A30G
DNA 1: CAATCTGAATTCCGGTCTCCC
DNA 2: TGGTGGCTACGACGGGATT
B19: AGACUGG (DNA:RNA)
RNA: B3 RNA with C26G, U31G
DNA 1: CAATCTGAATTCCGGTCTCCC
DNA 2: TGGTGGCTACGACGGGATT
B20: UGUUAAG (DNA:RNA)
RNA: B1 RNA with G25U, A26G, G28U, G29A, A31G
DNA 1: CAATCTGAATTCCGGTCTCCC
DNA 2: TGGTGGCTACGACGGGATT
B21: CCCUAUU (DNA:RNA)
RNA: B3 RNA with A25C, A27C, C28U, U29A, G30U
DNA 1: CAATCTGAATTCCGGTCTCCC
DNA 2: TGGTGGCTACGACGGGATT
B22: AACGGGG (DNA:RNA)
RNA: B1 RNA with G25A, U27C, A30G, A31G
DNA 1: CAATCTGAATTCCGGTCTCCC
DNA 2: TGGTGGCTACGACGGGATT
B23: CGAAUUU (DNA:RNA)
RNA: B3 RNA with A25C, C26G, C28A, G30U
DNA 1: CAATCTGAATTCCGGTCTCCC
DNA 2: TGGTGGCTACGACGGGATT
B24: CCUUAUG (DNA:RNA)
RNA: B3 RNA with A25C, A27U, C28U, U29A, G30U, U31G
DNA 1: CAATCTGAATTCCGGTCTCCC
DNA 2: TGGTGGCTACGACGGGATT
B25: AACAUGA (DNA:RNA)
RNA: B3 RNA with C26A, A27C, C28A, U31A
DNA 1: CAATCTGAATTCCGGTCTCCC
DNA 2: TGGTGGCTACGACGGGATT
B26: AGGAUGG (DNA:RNA)
RNA: B3 RNA with C26G, A27G, C28A, U31G
DNA 1: CAATCTGAATTCCGGTCTCCC
DNA 2: TGGTGGCTACGACGGGATT
B27: CAGUCAC (DNA:RNA)
RNA: B1 RNA with G25C, U27G, G28U, G29C, A31C
DNA 1: CAATCTGAATTCCGGTCTCCC
DNA 2: TGGTGGCTACGACGGGATT
B28: CUUGCUA (DNA:RNA)
RNA: B1 RNA with G25C, A26U, G29C, A30U
DNA 1: CAATCTGAATTCCGGTCTCCC
DNA 2: TGGTGGCTACGACGGGATT
B29: UAAUACU (DNA:RNA)
RNA: B3 RNA with A25U, C26A, C28U, U29A, G30C
DNA 1: CAATCTGAATTCCGGTCTCCC
DNA 2: TGGTGGCTACGACGGGATT
B30: AUUAGAU (DNA:RNA)
RNA: B1 RNA with G25A, A26U, G28A, A31U
DNA 1: CAATCTGAATTCCGGTCTCCC
DNA 2: TGGTGGCTACGACGGGATT
B31: GACAACG (DNA:RNA)
RNA: B1 RNA with U27C, G28A, G29A, A30C, A31G
DNA 1: CAATCTGAATTCCGGTCTCCC
DNA 2: TGGTGGCTACGACGGGATT

Each binder was assayed against T1, RBFOX1 RRM RbFoxmut (Fox-RRM*) (Homo sapiens, UniProt Q9NWB1 109-208, R118D;E147R;N151S;E152T) (assay: EMSA; HiTS-Eq, 1 nM pool, 10 min; buffer printed only for the single-RNA assays: 10 mM Tris pH 7.5, 150 mM NaCl, 3.4 mM EDTA, 0.001% NP-40, 30 C). Settings: tags: His6 N-terminal (pET28a); label: 5' 32P.
T1 sequence: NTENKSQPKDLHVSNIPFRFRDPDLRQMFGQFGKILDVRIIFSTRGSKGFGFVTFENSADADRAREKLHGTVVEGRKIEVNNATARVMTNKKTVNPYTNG
In short: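 These values rest on relative association constants, computed from read-count changes of each RNA species versus the control reaction and normalised to the cognate motif. Reads came from free RNA recovered by 8% native PAGE after purified RbFox RRM (wild type or mutant) at increasing concentrations was equilibrated for 10 min in 50 µL with 1 nM of a 5′-radiolabelled pool with 7 randomized nucleotides and DNA-annealed flanks.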

Binder | binding signal
B1 | 0.0962 KA relative to UGCAUGU
B2 | 0.281 KA relative to UGCAUGU
B3 | 0.103 KA relative to UGCAUGU
B4 | 0.366 KA relative to UGCAUGU
B5 | 0.111 KA relative to UGCAUGU
B6 | 0.109 KA relative to UGCAUGU
B7 | 0.0959 KA relative to UGCAUGU
B8 | 0.0612 KA relative to UGCAUGU
B9 | 0.166 KA relative to UGCAUGU
B10 | 0.128 KA relative to UGCAUGU
B11 | 0.122 KA relative to UGCAUGU
B12 | 0.147 KA relative to UGCAUGU
B13 | 0.0466 KA relative to UGCAUGU
B14 | 0.094 KA relative to UGCAUGU
B15 | 0.106 KA relative to UGCAUGU
B16 | 0.0726 KA relative to UGCAUGU

Binder | binding signal
B17 | 0.0861 KA relative to UGCAUGU
B18 | 0.0798 KA relative to UGCAUGU
B19 | 0.137 KA relative to UGCAUGU
B20 | 0.113 KA relative to UGCAUGU
B21 | 0.0705 KA relative to UGCAUGU
B22 | 0.0892 KA relative to UGCAUGU
B23 | 0.0708 KA relative to UGCAUGU
B24 | 0.119 KA relative to UGCAUGU
B25 | 0.0947 KA relative to UGCAUGU
B26 | 0.177 KA relative to UGCAUGU
B27 | 0.0858 KA relative to UGCAUGU
B28 | 0.137 KA relative to UGCAUGU
B29 | 0.103 KA relative to UGCAUGU
B30 | 0.0862 KA relative to UGCAUGU
B31 | 0.0294 KA relative to UGCAUGU
